Data reported in patent US20230413822A1, “ORAL CANINE FEED AND METHODS FOR C[…] INFESTATIONS IN A CANINE” (In the Bowl Animal Health, Inc., priority 2021, published 2023).
Several values for one entry are separate records, joined by “and”; a condition that tells them apart may be missing. Identical values can stand only once. This continues a long series; more values of the same kind are listed elsewhere.

Test: Plasma concentration of mivorilaner in dogs given an oral liquid formulation daily (Example 1)
Type: in vivo
Conditions: individual canines, days 0-29
Excerpt: Methods: A pool of 14 dogs are to be preliminarily infested with ˜100 unfed adult C. felis in order to produce dogs that can suitably sustain a reliable infestation rate, defined as approximately 50% fleas being live at the end of a 48-hour period. The 12 dogs with the highest live flea counts are to be selected for inclusion in the study. The dogs are to be divided into a control group and a treatment group.
The dogs are to be housed individually during the study period and are to be fed a commercial dry dog food ration with ad libitum access to water.
Each dog in the treatment group is to receive by mouth a liquid formulation of isoxazoline. The dosage of 0.75 mg/kg is to be administered to the dogs on each of days 0-29.
Dogs in the control group are not to receive isoxazoline or any other tick control treatment. Each dog in the treatment group is to be offered its daily ration (dry food) and the individual doses of liquid formulation are to be administered after the individual dog has eaten at least 25% of its total daily ration. After receiving the dose of isoxazoline, the dogs are to be allowed to continue eating. This mimics incorporating the isoxazoline in feed. Each dog in the treatment group and the control group is to be experimentally infested with 50 adult ticks on test days 5, 12, 19, 28 and 35. Comb counts for live and moribund attached ticks are to be conducted on days 7, 14, 21, 30 and 37.

SMILES: O=C(CNC(=O)c1sc(C2=NO[C@@](c3cc(Cl)c(F)c(Cl)c3)(C(F)(F)F)C2)c2c1CCC2)NCC(F)F [Mivorilaner, 3-[(5S)-5-(3,5-dichloro-4-fluorophenyl)-5-(trifluoromethyl)-4,5-dihydroisoxazol-3-yl]-N-[2-[(2,2-difluoroethyl)amino]-2-oxoethyl]-5,6-dihydro-4H-cyclopenta[c]thiophene-1-carboxamide]
- Mivorilaner Concentration (Day 3, 0.75 mg/kg/day oral): 800 ng/mL and 798 ng/mL
- Mivorilaner Concentration (Day 7, 0.75 mg/kg/day oral): 1660 ng/mL
- Mivorilaner Concentration (Day 14, 0.75 mg/kg/day oral): 2370 ng/mL and 2060 ng/mL
- Mivorilaner Concentration (Day 21, 0.75 mg/kg/day oral): 2950 ng/mL and 2660 ng/mL
- Mivorilaner Concentration (Day 30, 0.75 mg/kg/day oral): 2790 ng/mL
- Mivorilaner Concentration (Day 37, 0.75 mg/kg/day oral): 1980 ng/mL and 1750 ng/mL
